# Reference: PubChem BioAssay AID504333 (National Center for Advancing Translational Sciences (NCATS), 2011)
# Among all 360,000 compounds or so, about 16,000 (4.4%) were called active. The shares of active, inactive and inconclusive entries below differ from those in the screen. Calls come from the whole dose curve; as a rule, active = well fitted inhibition curve with a large enough effect; inconclusive = small, poorly fitted or top-dose-only effect; inactive = no such curve, though single readings can be large or run the other way. Potencies of inconclusive entries are doubtful fits and often do not repeat.
# Target: Bromodomain adjacent to zinc finger domain protein 2B (Homo sapiens) (UniProt Q9UIF8)
# Test: qHTS Assay for Inhibitors of BAZ2B; note: nearly all actives have a fitted effect of over 60% in size
# Conditions: AlphaScreen BAZ2B-H3K14Ac peptide displacement; series mostly up to 114 µM
# Method in brief: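 AlphaScreen displacement of biotin-H3(5-23)K14Ac peptide (50 nM final) from BAZ2B (50 nM final) in PBS pH 7.4, 0.01% Tween-20; complex preformed 30 min RT, then compounds (top 110 uM) 30 min RT, beads 20 min dark.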
# Potency is the fitted concentration of half-maximal effect; tags give direction and shape of the fitted curve.
# Sequence of UniProt Q9UIF8 (Q9UIF8 whole entry, looked up, the tested form may be a part): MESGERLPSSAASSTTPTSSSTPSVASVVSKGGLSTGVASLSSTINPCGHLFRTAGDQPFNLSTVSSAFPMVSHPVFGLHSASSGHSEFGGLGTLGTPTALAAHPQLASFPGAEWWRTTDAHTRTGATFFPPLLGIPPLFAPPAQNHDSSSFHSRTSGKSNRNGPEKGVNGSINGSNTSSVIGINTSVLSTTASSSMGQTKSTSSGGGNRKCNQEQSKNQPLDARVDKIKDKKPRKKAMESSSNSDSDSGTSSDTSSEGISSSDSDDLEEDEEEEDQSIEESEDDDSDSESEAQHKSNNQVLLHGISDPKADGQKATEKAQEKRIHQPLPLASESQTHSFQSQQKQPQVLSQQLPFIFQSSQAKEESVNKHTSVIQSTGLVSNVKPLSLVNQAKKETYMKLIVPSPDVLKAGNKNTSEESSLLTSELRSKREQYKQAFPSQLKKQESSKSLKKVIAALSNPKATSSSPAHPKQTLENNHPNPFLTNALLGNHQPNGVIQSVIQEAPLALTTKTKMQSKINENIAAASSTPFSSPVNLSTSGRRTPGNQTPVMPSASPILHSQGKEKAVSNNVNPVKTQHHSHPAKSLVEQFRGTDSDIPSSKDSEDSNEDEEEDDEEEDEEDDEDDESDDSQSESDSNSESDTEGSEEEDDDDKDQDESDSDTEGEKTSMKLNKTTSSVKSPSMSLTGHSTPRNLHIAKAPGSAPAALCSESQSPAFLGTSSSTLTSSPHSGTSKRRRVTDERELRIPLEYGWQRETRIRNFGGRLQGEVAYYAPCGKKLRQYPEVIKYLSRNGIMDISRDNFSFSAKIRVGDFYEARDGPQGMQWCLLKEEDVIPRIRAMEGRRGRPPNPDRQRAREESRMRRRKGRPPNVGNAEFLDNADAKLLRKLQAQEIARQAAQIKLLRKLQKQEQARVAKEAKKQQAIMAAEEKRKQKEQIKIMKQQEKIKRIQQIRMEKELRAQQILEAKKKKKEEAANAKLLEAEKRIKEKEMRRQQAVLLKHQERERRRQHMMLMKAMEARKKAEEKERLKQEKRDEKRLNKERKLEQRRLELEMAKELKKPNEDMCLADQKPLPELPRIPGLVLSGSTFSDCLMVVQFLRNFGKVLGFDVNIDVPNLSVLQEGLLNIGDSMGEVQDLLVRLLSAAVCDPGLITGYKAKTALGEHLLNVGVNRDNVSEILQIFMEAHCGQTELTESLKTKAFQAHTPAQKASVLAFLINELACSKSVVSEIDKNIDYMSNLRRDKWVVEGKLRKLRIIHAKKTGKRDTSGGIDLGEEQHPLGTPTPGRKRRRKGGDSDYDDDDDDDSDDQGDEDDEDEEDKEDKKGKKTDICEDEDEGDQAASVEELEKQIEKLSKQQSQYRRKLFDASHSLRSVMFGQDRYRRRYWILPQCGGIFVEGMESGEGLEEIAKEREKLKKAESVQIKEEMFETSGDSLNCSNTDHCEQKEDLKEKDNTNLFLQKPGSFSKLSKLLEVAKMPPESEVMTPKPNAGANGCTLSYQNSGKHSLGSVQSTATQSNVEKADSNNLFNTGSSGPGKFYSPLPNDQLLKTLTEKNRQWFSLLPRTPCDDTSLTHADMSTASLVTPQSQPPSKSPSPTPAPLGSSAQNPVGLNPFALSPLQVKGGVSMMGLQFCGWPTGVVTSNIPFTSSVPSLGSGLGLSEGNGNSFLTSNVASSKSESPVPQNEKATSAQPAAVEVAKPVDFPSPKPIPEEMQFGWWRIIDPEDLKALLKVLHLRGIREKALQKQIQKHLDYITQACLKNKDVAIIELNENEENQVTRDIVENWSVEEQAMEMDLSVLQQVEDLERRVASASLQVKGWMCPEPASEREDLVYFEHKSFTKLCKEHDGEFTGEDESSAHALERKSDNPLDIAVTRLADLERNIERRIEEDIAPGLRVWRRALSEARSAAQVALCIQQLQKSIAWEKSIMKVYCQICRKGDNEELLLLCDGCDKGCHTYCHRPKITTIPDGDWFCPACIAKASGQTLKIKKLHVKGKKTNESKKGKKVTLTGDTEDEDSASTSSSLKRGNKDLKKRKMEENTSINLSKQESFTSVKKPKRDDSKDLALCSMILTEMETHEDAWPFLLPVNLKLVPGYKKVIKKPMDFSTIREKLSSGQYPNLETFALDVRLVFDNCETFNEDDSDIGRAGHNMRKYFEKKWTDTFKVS
row,Structure (SMILES),Potency
1,CCOC(=O)C1=C(O)/C(=C/c2cc(C)n(-c3ccccc3)c2C)N=C1C,"inconclusive: 50.1 µM [inhibitor, partial curve]"
2,O=C(COC(=O)c1cc([N+](=O)[O-])ccc1N1CCOCC1)NCc1ccc(F)cc1,"inconclusive: 79.4 µM [inhibitor, single point]"
3,NCCCC[C@@H]1NC(=O)c2cc([N+](=O)[O-])cc(I)c2SC[C@@H](C(N)=O)NC(=O)[C@H](CCC(N)=O)NC1=O,"inconclusive: 89.1 µM [inhibitor, single point]"
4,COc1ccc(NC(=O)N2CCCC(c3nc(-c4ccc(OC)cc4)no3)C2)cc1 (centres undefined),"inconclusive: 79.4 µM [inhibitor, partial curve]"
5,CC(C)OCC(O)CN1CCN(C(c2ccccc2)c2ccccc2)CC1 (centres undefined),"inconclusive: 56.2 µM [inhibitor, partial curve]"
6,CC(=O)c1ccc(NS(=O)(=O)c2ccc(N)cc2)cc1,inactive
7,CCc1cc(C(=O)Nc2nc(-c3ccccn3)cs2)sc1C,active: 70.8 µM
8,CC1CCN(c2cc(N)c(Cl)cc2[N+](=O)[O-])CC1,"inconclusive: 44.7 µM [inhibitor, partial curve]"
9,COc1ccc(O)c(/C=C2/SC(=S)N(Cc3ccccc3)C2=O)c1,active: 31.6 µM
10,CC(=O)c1ccc(NC(=O)CCCc2nc(-c3cccc(C)c3)no2)cc1,inactive
11,COc1ccc(C2SCCN2C(=S)Nc2cccc(C(F)(F)F)c2)cc1 (centres undefined),inactive
12,CCCn1nc(NC(=O)c2ccco2)c2cc3cc(C)ccc3nc21,inactive
13,O=C(COC(=O)COc1ccc(Nc2ccccc2)cc1)NCc1ccco1,active: 50.1 µM
14,CSCc1nnc(NC(=O)c2ccc(S(=O)(=O)N3CCCCC3C)cc2)o1 (centres undefined),"inconclusive: 89.1 µM [inhibitor, single point]"
15,COc1ccc(S(=O)(=O)Nc2ccc(OCC(=O)O)cc2)c2ccccc12,inactive
16,Cc1cc(NNC(=O)Nc2cccc(Cl)c2)nc2c1c(C)nn2C,"inconclusive: 79.4 µM [inhibitor, single point]"
17,COc1ccc(C2c3sc(=O)[nH]c3SC3C4CCC(C4)C23)cc1 (centres undefined),"inconclusive: 44.7 µM [inhibitor, partial curve]"
18,O=C(O)C1CSC(c2coc3ccccc3c2=O)N1 (centres undefined),active: 50.1 µM
19,COc1cccc2cc(C(=O)OC(C)C(=O)c3ccc(C)cc3)c(=O)oc12 (centres undefined),"inconclusive: 89.1 µM [inhibitor, single point]"
20,COc1cc(/C=C2\SC(=S)N(NC(=O)c3ccc(O)c(OC)c3)C2=O)ccc1O,active: 35.5 µM
21,COc1ccc(-c2cc(N)n(S(=O)(=O)c3c(F)c(F)c(F)c(F)c3F)n2)cc1OC,"inconclusive: 79.4 µM [inhibitor, single point]"
22,Cc1ccc(NC(=O)c2cc(S(=O)(=O)N3CCOCC3)c(Br)s2)cc1,inactive
23,Cc1ccc(Nc2nnc(SCC(=O)NC(Cc3c[nH]c4ccccc34)C(=O)O)s2)cc1 (centres undefined),active: 50.1 µM
24,CCC(C)[C@H](NC(=O)N1CC(=O)Nc2ccccc21)C(=O)NC(C)CCc1ccccc1 (some centres undefined),"inconclusive: 89.1 µM [inhibitor, single point]"
25,CCCN1CCC(N2CCN(c3cccc(C(F)(F)F)c3)CC2)CC1,inactive

row,Structure (SMILES),Potency
1,c1ccc(CSc2nnc3c(n2)OC(c2ccco2)Nc2ccccc2-3)cc1 (centres undefined),"inconclusive: 17.8 µM [inhibitor, partial curve]"
2,CC(=O)N1CCc2cc(S(=O)(=O)CCC(=O)NCc3ccc4c(c3)OCO4)ccc21,"inconclusive: 89.1 µM [inhibitor, single point]"
3,O=C1Nc2ccc(Cl)cc2C12Nc1ccccc1-c1nnc(SCc3ccccc3F)nc1O2 (centres undefined),"inconclusive: 28.2 µM [inhibitor, partial curve]"
4,O=c1[nH]sc2ccccc12,active: 50.1 µM
5,COCCN1CCN(C(=O)c2cc(COc3ccc(Cl)cc3OC)on2)CC1,inactive
6,Cc1cccc(C(=O)N2CCCC(c3nc(-c4ccc(F)cc4)no3)C2)c1 (centres undefined),inactive
7,COc1ccccc1OCC(=O)N/N=C1\CCc2ccccc21,"inconclusive: 31.6 µM [inhibitor, single point]"
8,c1ccc(C2[C@H]3CN(CC4CCCCC4)[C@H](c4ccccc4)C34CC2(c2cccnc2)C4)cc1 (some centres undefined),"inconclusive: 79.4 µM [inhibitor, single point]"
9,Cc1c(N(C)C)nc2ccccc2c1N,active: 44.7 µM
10,O=c1ccc(N=Nc2ccccc2)ccc1O,active: 11.2 µM
11,CNC(=S)N/N=C/c1cn(Cc2c(F)cccc2Cl)c2ccccc12,"inconclusive: 31.6 µM [inhibitor, full curve]"
12,Cc1ccc(/C=C2\SC(=S)N(CCCC(=O)N3CCOCC3)C2=O)cc1,active: 11.2 µM
13,Cc1ccc(C(=O)NC(=S)Nc2ccc(N3CCOCC3)cc2)cc1C,active: 20 µM
14,COC(=O)c1ccc(C(=O)OC)c(NC(=O)N2CC3CCCN3c3ccccc32)c1 (centres undefined),active: 25.1 µM
15,COc1ccc(Nc2nnc(SCC(=O)/C=C3/N(C)c4ccccc4C3(C)C)s2)cc1,"inconclusive: 31.6 µM [inhibitor, full curve, poor fit]"
16,Cc1ccc(C(=O)Nc2ccc(S(=O)(=O)NC3=NCCCCC3)cc2)c(C)c1,inactive
17,O=C(/C=C/c1ccccc1)c1ccc(NC2=NCCCS2)cc1,"inconclusive: 39.8 µM [inhibitor, partial curve]"
18,C=CCN1/C(=C2/SC(=S)N(C)C2=O)Sc2ccccc21,"inconclusive: 50.1 µM [inhibitor, partial curve]"
19,COc1cc2c(cc1OC)CN(CC(=O)Nc1ccc(Cl)c(S(=O)(=O)N(C)C)c1)CC2,inactive
20,CNCCCOc1ccc(C)cc1OC,active: 39.8 µM
21,Cc1c(Cl)cnc(NC(=O)COC(=O)C2CC3CCCC(C2)C3=O)c1Cl (centres undefined),inactive
22,CCN(C(=O)CSc1nnc(C2CC2)n1-c1ccccc1)C1CCS(=O)(=O)C1 (centres undefined),inactive
23,CCN(CC(=O)Nc1ccc2c(c1)OCCO2)C(=O)C(C)Oc1ccc(Cl)cc1 (centres undefined),inactive
24,CCN(CC)CCN1C(=O)C(O)=C(C(=O)c2ccco2)C1c1ccccn1 (centres undefined),"inconclusive: 70.8 µM [inhibitor, single point]"
25,O=C(Cn1cnc2ccccc21)N/N=C/c1ccccn1,active: 10 µM

row,Structure (SMILES),Potency
1,CS(=O)(=O)N(CC(=O)N1CCN(Cc2ccccc2)CC1)c1cccc(Cl)c1,inactive
2,CCCCCC(=O)NC(NC(=S)NC1CCS(=O)(=O)C1)C(Cl)(Cl)Cl (centres undefined),inactive
3,O=C(Cn1ccn(-c2ccc(F)c(F)c2)c(=O)c1=O)c1ccc(F)cc1,"inconclusive: 89.1 µM [inhibitor, single point]"
4,COc1ccc(S(=O)(=O)Cc2ccc(C(=O)NCCCN(C)c3ccccc3)o2)cc1,"inconclusive: 70.8 µM [inhibitor, single point]"
5,CCOC(=O)c1ccc(N=c2ssnc2Cl)cc1,active: 28.2 µM
6,O=C(Nc1ccc2c(c1)OCCO2)c1cccc2nc3ccccc3nc12,"inconclusive: 7.94 µM [inhibitor, full curve]"
7,O=C(NC1=NCCS1)c1cccc2ccccc12,"inconclusive: 63.1 µM [inhibitor, partial curve, poor fit]"
8,Cc1cccc(OCCSc2nc3ccc(NC(=O)c4cccs4)cc3s2)c1,"inconclusive: 89.1 µM [inhibitor, single point]"
9,O=Cc1cc(N=Nc2cccc(C(=O)O)c2)ccc1O,"inconclusive: 79.4 µM [inhibitor, single point]"
10,O=C(CCCc1cccs1)Nc1nc2c(s1)CCCC2,"inconclusive: 89.1 µM [inhibitor, single point]"
11,Cc1nc(-c2ccc(S(=O)(=O)NCc3ccccn3)s2)cs1,"inconclusive: 50.1 µM [inhibitor, partial curve]"
12,COc1cccc(/C=N/NC(=O)c2ccc(=O)n(C)c2)c1O,"inconclusive: 89.1 µM [inhibitor, single point]"
13,CCCCC(=O)Nc1cc2nn(-c3ccc(OCC)cc3)nc2cc1C,inactive
14,O=C1/C(=C/c2cccnc2)CCC/C1=C\c1cccnc1,inactive
15,COC(=O)[C@H](C)NC(=O)NCc1ccccc1,inactive
16,CCn1cc(C(=O)O)c(=O)c2cc(F)c(N3CCN(C(=S)NC(=O)c4ccccc4F)CC3)cc21,"inconclusive: 50.1 µM [inhibitor, partial curve]"
17,Cc1cccc(C)c1Nc1c(-c2cccs2)nc2ncccn12,"inconclusive: 20 µM [inhibitor, partial curve]"
18,CSc1ccc(S(=O)(=O)N2CCC(C(=O)NCc3ccccn3)CC2)cc1,"inconclusive: 79.4 µM [inhibitor, partial curve]"
19,CCCN(Cc1cc2ccc(C)cc2[nH]c1=O)S(=O)(=O)c1ccccc1,"inconclusive: 7.08 µM [inhibitor, single point]"
20,Cc1ccc(C)c(N2C(=O)CN=C2Nc2ccccc2Cl)c1,"inconclusive: 89.1 µM [inhibitor, single point]"
21,Cc1cccc(C)c1OCC(=O)NCC1COc2ccccc2O1 (centres undefined),inactive
22,O=C(NCc1ccccc1)c1nc[nH]c1C(=O)NCc1ccccc1,"inconclusive: 44.7 µM [inhibitor, partial curve]"
23,NC(=O)c1c(NC(=O)C2c3ccccc3Oc3ccccc32)sc2c1CCCCC2,"inconclusive: 89.1 µM [inhibitor, single point]"
24,Cc1ccc(CSc2ccc3nnc(CCNS(=O)(=O)c4ccc(C)cc4)n3n2)cc1,"inconclusive: 70.8 µM [inhibitor, single point]"
